The source of these data is the supplement of paper PMC4604168 (melanoma cell lines).

Some of the results follow. Single values are uncertain, as repeats are few or missing.
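Also: cells treated in 1,536-well plates, then fixed and DAPI-stained, with nuclei counted from automated high-throughput microscope images.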

In the assay the test system is A375. In words: cell count relative to DMSO control; melanoma cells; higher = more viable cells. The conditions noted are these: library dose: standard library concentration; 72 h; first compound 2 µM.
Compound `C[C@@H](N)c1ccc(C(=O)Nc2ccnc3[nH]ccc23)cc1` + Cc1cc([N+](=O)[O-])ccc1NS(=O)(=O)c1cc(Cl)ccc1Cl [FH535] (partner dose 5 µM) came in with a cell count of 74.1%.
In the case of `CCCCCCCCCCCCCCCCCCOP(=O)([O-])OC1CC[N+](C)(C)CC1` [Perifosine] + CCN(CC)CCCCNc1ncc2cc(-c3cc(OC)cc(OC)c3)c(NC(=O)NC(C)(C)C)nc2n1 [PD173074] (partner dose 0.5 µM) it was 111%; in that of `C[C@@H](N)c1ccc(C(=O)Nc2ccnc3[nH]ccc23)cc1` + c1cc(-c2cnn3cc(-c4ccc(OCCN5CCCCC5)cc4)cnc23)ccn1 [Dorsomorphin] (partner dose 2 µM), 87.6%; in that of `C[C@@H](N)c1ccc(C(=O)Nc2ccnc3[nH]ccc23)cc1` + Nc1nc(F)nc2c1ncn2[C@@H]1O[C@H](CO)[C@@H](O)[C@@H]1O [fludarabine] (partner dose 1 µM), 30.1%.
Turning to `C[C@@H](N)c1ccc(C(=O)Nc2ccnc3[nH]ccc23)cc1` + CN(NC(=O)CC(=O)NN(C)C(=S)c1ccccc1)C(=S)c1ccccc1 [STA4783] (partner dose 0.03 µM), the cell count came to 117%.
As to `CCCCCCCCCCCCCCCCCCOP(=O)([O-])OC1CC[N+](C)(C)CC1` [Perifosine] + COc1cc2ncnc(Nc3ccc(Oc4ccccc4)cc3)c2cc1OC [SrcI1] (partner dose 10 µM), the cell count turned out to be 120%.
In turn, `CCCCCCCCCCCCCCCCCCOP(=O)([O-])OC1CC[N+](C)(C)CC1` [Perifosine] + Cc1cc(Nc2cc(N3CCN(C)CC3)nc(/C=C/c3ccccc3)n2)n[nH]1 [ENMD2076] (partner dose 0.2 µM) yielded a cell count of 74.9%.
Take `C[C@@H](N)c1ccc(C(=O)Nc2ccnc3[nH]ccc23)cc1` + O=c1cc(-c2cccc3c2Sc2ccccc2S3)oc(N2CCOCC2)c1 [KU55933] (partner dose 5 µM): the cell count was determined as 102%.
The value for `Cn1sc(=O)n(Cc2ccccc2)c1=O` + O=c1cc(-c2cccc3c2Sc2ccccc2S3)oc(N2CCOCC2)c1 [KU55933] (partner dose 5 µM) was 108%; that for `CCCCCCCCCCCCCCCCCCOP(=O)([O-])OC1CC[N+](C)(C)CC1` [Perifosine] + O=C1NC(=O)/C(=C/c2ccc(-c3ccc(F)cc3O)o2)S1 [AS252424] (partner dose 5 µM) was 102%.
The value for `Cn1sc(=O)n(Cc2ccccc2)c1=O` + Oc1cc(-c2nc(-c3ccccc3)[nH]c2-c2ccncc2)ccc1Cl [L779450] (partner dose 1 µM) was 108%; that for `Cn1sc(=O)n(Cc2ccccc2)c1=O` + Oc1nc(-c2ccc(C(F)(F)F)cc2)nc2c1CSCC2 [XAV939] (partner dose 10 µM) was 59.1%.
The compound `Cn1sc(=O)n(Cc2ccccc2)c1=O` + COc1ccc(C2=N[C@@H](c3ccc(Cl)cc3)[C@@H](c3ccc(Cl)cc3)N2C(=O)N2CCNC(=O)C2)c(OC(C)C)c1 [Nutlin-3] (partner dose 0.5 µM) registered a cell count of 93.6%.
The value for `Cn1sc(=O)n(Cc2ccccc2)c1=O` + CCN(CC)CCCCNc1ncc2cc(-c3cc(OC)cc(OC)c3)c(NC(=O)NC(C)(C)C)nc2n1 [PD173074] (partner dose 0.5 µM) was 77.9%.
In the case of `C[C@@H](N)c1ccc(C(=O)Nc2ccnc3[nH]ccc23)cc1` + NC(=O)c1ccc(N(C(N)=O)c2c(F)cccc2F)nc1-c1ccc(F)cc1F [VX702] (partner dose 2 µM) it was 88%; in that of `CCCCCCCCCCCCCCCCCCOP(=O)([O-])OC1CC[N+](C)(C)CC1` [Perifosine] + Oc1cc(-c2nc(-c3ccccc3)[nH]c2-c2ccncc2)ccc1Cl [L779450] (partner dose 1 µM), 75.2%; in that of `Cn1sc(=O)n(Cc2ccccc2)c1=O` + COc1ccc2c(c1)CCC1C2CCC2(C)C(NCCCCCCN3C(=O)C=CC3=O)CCC12 [U73122] (partner dose 2 µM), 77.4%.
In the case of `CCCCCCCCCCCCCCCCCCOP(=O)([O-])OC1CC[N+](C)(C)CC1` [Perifosine] + C[C@]1(O)C[C@@H](c2nc(-c3ccc4ccc(-c5ccccc5)nc4c3)c3c(N)nccn32)C1 [OSI906] (partner dose 2 µM) it was 77.5%; in that of `Cn1sc(=O)n(Cc2ccccc2)c1=O` + Cn1cc(/C=C2\C(=O)Nc3cccnc32)c2ccccc21 [GW441756] (partner dose 2 µM), 141%.
